Measurements: patent publication US9670250B2, “Alpha-helical peptidomimetic inhibitors and methods using same” (The Trustees of the University of Pennsylvania, priority 2012, dated 2017)
At least one peptide structure holds a part that was inferred or is arguable (an end, a ring closure or a residue). For at least one compound, name, drawing or mass did not settle the structure. Starred links: 1 amine or outer side, 2 acyl side, 3 side chain; linkers in the order of their positions; H or OH if unused. Positions of bridges follow the written chain, without caps; N, C: chain ends. Residues, ends and D or L forms follow the SMILES beside them. mXylylene = c1cc(C[*:1])cc(C[*:2])c1

How the values were obtained:
Cathepsin K = biological target: T1, Cathepsin K (Homo sapiens, UniProt P43235); experiment: in vitro fluorescence-based protease inhibition assay, cathepsin K; assay type: biochemical
T1 sequence (P43235 115-329): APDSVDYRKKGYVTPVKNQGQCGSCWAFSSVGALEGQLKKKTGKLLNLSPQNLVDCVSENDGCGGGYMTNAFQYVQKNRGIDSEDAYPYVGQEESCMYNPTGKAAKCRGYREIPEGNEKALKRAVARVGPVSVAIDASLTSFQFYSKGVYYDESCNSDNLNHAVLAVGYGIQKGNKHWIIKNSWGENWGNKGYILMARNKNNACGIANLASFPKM
Source text: (§1) Thus, the present invention includes a series of potent and highly specific α-helical inhibitors for papain family cysteine proteases. […] These short α-helical peptidomimetic inhibitors are modeled after the natural pro-domain sequence but contain a cysteine substitution at specific residues in i,i+4 positions, as shown in FIG. 2B. These cysteine residues are used for stabilization of the helix utilizing an appropriate linker (Muppidi, et al., 2011, Chem Commun (Camb) 47:9396-9398). After synthesis, each inhibitor was tested against its respective protease using an in vitro fluorescence-based assay. For each enzyme, at least one inhibitor was identified that is relatively potent and highly specific for its individual protease. These inhibitors can be modified or otherwise optimized to attain higher potency and selectivity through identification of key interactions between the inhibitor and the active site amino acid residues. Such optimization involves visual examination of the protease crystal structure, and substitution with either non-natural or natural amino acids to exploit possible crucial non-covalent protein ligand interactions, such as hydrogen bond, electrostatic, hydrophobic, and Van der Waals interactions.

Calpain (Calpain-1) = biological target: T2, Calpain (Calpain-1) (Homo sapiens, UniProt P07384); experiment: in vitro fluorescence-based protease inhibition assay, calpain; assay type: biochemical
T2 sequence (P07384 1-714): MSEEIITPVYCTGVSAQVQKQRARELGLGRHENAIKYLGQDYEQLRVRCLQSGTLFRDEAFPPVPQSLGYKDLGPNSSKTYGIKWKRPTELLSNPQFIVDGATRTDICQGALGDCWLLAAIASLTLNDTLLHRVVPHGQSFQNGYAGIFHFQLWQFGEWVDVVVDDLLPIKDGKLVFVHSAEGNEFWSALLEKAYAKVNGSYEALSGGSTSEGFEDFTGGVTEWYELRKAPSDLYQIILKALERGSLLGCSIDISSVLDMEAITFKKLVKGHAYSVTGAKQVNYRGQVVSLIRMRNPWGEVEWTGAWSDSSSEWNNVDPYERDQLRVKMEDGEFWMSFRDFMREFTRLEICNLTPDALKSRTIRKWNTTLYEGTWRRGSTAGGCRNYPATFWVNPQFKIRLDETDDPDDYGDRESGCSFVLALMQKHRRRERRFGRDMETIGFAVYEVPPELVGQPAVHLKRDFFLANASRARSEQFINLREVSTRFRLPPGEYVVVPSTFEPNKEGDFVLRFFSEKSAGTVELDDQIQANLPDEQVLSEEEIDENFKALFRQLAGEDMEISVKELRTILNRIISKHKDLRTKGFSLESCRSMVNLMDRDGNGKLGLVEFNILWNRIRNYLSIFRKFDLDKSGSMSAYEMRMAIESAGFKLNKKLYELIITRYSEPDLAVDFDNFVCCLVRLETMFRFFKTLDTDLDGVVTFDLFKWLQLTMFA
T2 sequence (P04632 1-268 partner): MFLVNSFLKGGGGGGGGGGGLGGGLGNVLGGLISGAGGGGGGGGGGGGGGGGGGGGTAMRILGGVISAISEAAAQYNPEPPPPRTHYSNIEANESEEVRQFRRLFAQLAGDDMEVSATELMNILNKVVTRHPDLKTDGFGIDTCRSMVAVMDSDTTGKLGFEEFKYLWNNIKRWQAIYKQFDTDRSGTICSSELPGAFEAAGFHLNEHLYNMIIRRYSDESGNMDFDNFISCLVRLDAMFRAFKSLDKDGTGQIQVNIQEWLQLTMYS
Source text: as §1

[1] = Table 2, cathepsin S inhibitors
[2] = Table 3, cathepsin K inhibitors

SMILES | Ki (Cathepsin K; [2]) [µM] | Ki (Calpain (Calpain-1); Table 4, calpain inhibitors) [µM] | further results
CSCC[C@@H]1NC(=O)[C@H](CC(C)C)NC(=O)[C@H](CO)NC(=O)[C@@H](NC(=O)[C@H](Cc2c[nH]c3ccccc23)NC(=O)[C@H](CCC(=O)O)NC(=O)[C@H](CCC(=O)O)NC(=O)[C@H](CO)NC(=O)[C@@H](N)[C@@H](C)O)CSCc2cccc(c2)CSC[C@@H](C(=O)N[C@@H](CO)C(=O)O)NC1=O [compound 21] (H-TSEEWCSLMCS-OH; linker 6-10 via mXylylene; N-terminus and C-terminus assumed) |  |  | Ki (Cathepsin K; [1]): > 100 µM; Ki (Calpain (Calpain-1); [1]): > 100 µM
CSCC[C@@H]1NC(=O)[C@H](CC(C)C)NC(=O)[C@H](CO)NC(=O)[C@@H](NC(=O)[C@H](Cc2c[nH]c3ccccc23)NC(=O)[C@H](Cc2c[nH]c3ccccc23)NC(=O)[C@H](CCC(=O)O)NC(=O)[C@H](Cc2c[nH]c3ccccc23)NC(=O)[C@@H](N)Cc2c[nH]c3ccccc23)CSCc2cccc(c2)CSC[C@@H](C(=O)N[C@@H](CO)C(=O)O)NC1=O [compound 26] (H-WWEWWCSLMCS-OH; linker 6-10 via mXylylene) |  |  | Ki (Calpain (Calpain-1); [1]): 66.7 ± 1.24 µM
CSCC[C@H](NC(=O)[C@H](CCCCN)NC(=O)[C@@H]1CSCc2cccc(c2)CSC[C@H](NC(=O)[C@@H](N)CO)C(=O)N[C@@H](CCC(=O)O)C(=O)N[C@@H](Cc2c[nH]cn2)C(=O)N[C@@H](C(C)C)C(=O)N1)C(=O)N[C@H](C(=O)NCC(=O)N[C@@H](CC(C)C)C(=O)O)[C@@H](C)O [compound 36] (H-SCEHVCKMTGL-OH; linker 2-6 via mXylylene; N-terminus and C-terminus assumed) | > 100 |  | 
CC(C)C[C@H](NC(=O)CNC(=O)[C@@H](NC(=O)[C@@H]1CCCN1C(=O)[C@H](CCCCN)NC(=O)[C@@H]1CSCc2cccc(c2)CSC[C@H](NC(=O)[C@@H](N)CO)C(=O)N[C@@H](CCC(=O)O)C(=O)N[C@@H](C(C)C)C(=O)N[C@@H](C(C)C)C(=O)N1)[C@@H](C)O)C(=O)O [compound 39] (H-SCEVVCKPTGL-OH; linker 2-6 via mXylylene; N-terminus and C-terminus assumed) | > 100 |  | Ki (Calpain (Calpain-1); [2]): > 100 µM
CSCC[C@H](NC(=O)[C@H](CCCCN)NC(=O)[C@@H]1CSCc2cccc(c2)CSC[C@H](NC(=O)[C@@H](N)CO)C(=O)N[C@@H](CCC(=O)O)C(=O)N[C@@H](C(C)C)C(=O)N[C@@H](C(C)C)C(=O)N1)C(=O)N[C@@H](Cc1c[nH]c2ccccc12)C(=O)NCC(=O)N[C@@H](CC(C)C)C(=O)O [compound 41] (H-SCEVVCKMWGL-OH; linker 2-6 via mXylylene) | > 100 |  | 
CC(C)[C@@H]1NC(=O)[C@H](CCC(=O)O)NC(=O)[C@H](CCC(=O)O)NC(=O)[C@@H](NC(=O)[C@@H](N)CO)CSCc2cccc(c2)CSC[C@@H](C(=O)N[C@@H](CCCCN)C(=O)N2CCC[C@H]2C(=O)NCC(=O)NCC(=O)N2CCC[C@H]2C(=O)O)NC1=O [compound 47] (H-SCEEVCKPGGP-OH; linker 2-6 via mXylylene) | > 100 |  | 
CC(C)C[C@H](NC(=O)CNC(=O)[C@@H](NC(=O)[C@H](Cc1ccccc1)NC(=O)[C@H](CCCCN)NC(=O)[C@@H]1CSCc2cccc(c2)CSC[C@H](NC(=O)[C@@H](N)CO)C(=O)N[C@@H](CCC(=O)O)C(=O)N[C@@H](C(C)C)C(=O)N[C@@H](C(C)C)C(=O)N1)[C@@H](C)O)C(=O)N[C@@H](CCCCN)C(=O)N[C@H](C(=O)N1CCC[C@H]1C(=O)O)C(C)C [compound 52] (H-SCEVVCKFTGLKVP-OH; linker 2-6 via mXylylene) | > 100 |  | 
CSCC[C@H](NC(=O)[C@H](CCCCN)NC(=O)[C@@H]1CSCc2cccc(c2)CSC[C@H](NC(=O)[C@@H](N)CO)C(=O)N[C@@H](CCC(=O)O)C(=O)N[C@@H](C(C)C)C(=O)N[C@@H](C(C)C)C(=O)N1)C(=O)N[C@H](C(=O)NCC(=O)N[C@@H](CC(C)C)C(=O)N[C@@H](CCCCN)C(=O)N[C@@H](Cc1ccccc1)C(=O)N1CCC[C@H]1C(=O)O)[C@@H](C)O [compound 53] (H-SCEVVCKMTGLKFP-OH; linker 2-6 via mXylylene) | > 100 |  | 
CC[C@H](C)[C@H](N)C(=O)N1CCC[C@H]1C(=O)N[C@H]1CSCc2cccc(c2)CSC[C@@H](C(=O)N[C@@H](CC(C)C)C(=O)N[C@@H](CC(C)C)C(=O)N[C@@H](C)C(=O)O)NC(=O)[C@H](CCCNC(=N)N)NC(=O)[C@H](Cc2ccc(O)cc2)NC(=O)[C@H](CCCCN)NC1=O [compound 63] (H-IPCKYRCLLA-OH; linker 3-7 via mXylylene) |  | > 100 | 
CC[C@H](C)[C@H](N)C(=O)N1CCC[C@H]1C(=O)N1CCC[C@H]1C(=O)N[C@H]1CSCc2cccc(c2)CSC[C@@H](C(=O)N[C@@H](CC(C)C)C(=O)N[C@@H](C)C(=O)O)NC(=O)[C@H](CCC(=O)O)NC(=O)[C@H](CCCNC(=N)N)NC(=O)[C@H](Cc2ccc(O)cc2)NC1=O [compound 64] (H-IPPCYRECLA-OH; linker 4-8 via mXylylene; N-terminus and C-terminus assumed) |  | 95.6 ± 25.5 | 
CC[C@H](C)[C@H](N)C(=O)N1CCC[C@H]1C(=O)N1CCC[C@H]1C(=O)N[C@@H](CCCCN)C(=O)N[C@@H](Cc1ccc(O)cc1)C(=O)N[C@@H](CCCNC(=N)N)C(=O)N[C@H]1CSCc2cccc(c2)CSC[C@@H](C(=O)O)NC(=O)[C@H](C)NC(=O)[C@H](CC(C)C)NC(=O)[C@H](CC(C)C)NC1=O [compound 66] (H-IPPKYRCLLAC-OH; linker 7-11 via mXylylene; N-terminus and C-terminus assumed) |  | 7.5 ± 2.7 | 
CC[C@H](C)[C@H](NC(=O)[C@@H](NC(=O)[C@@H](NC(=O)[C@H](CCC(=O)O)NC(=O)[C@H](CCCNC(=N)N)NC(=O)[C@H](CCCCN)NC(=O)[C@H](Cc1ccccc1)NC(=O)[C@@H](N)CC(C)C)C(C)C)[C@@H](C)O)C(=O)N1CCC[C@H]1C(=O)N1CCC[C@H]1C(=O)N[C@@H](CCCCN)C(=O)N[C@@H](Cc1ccc(O)cc1)C(=O)N[C@H]1CSCc2cccc(c2)CSC[C@@H](C(=O)O)NC(=O)[C@H](CC(C)C)NC(=O)[C@H](CC(C)C)NC(=O)[C@H](CCC(=O)O)NC1=O [compound 68] (H-LFKREVTIPPKYCELLC-OH; linker 13-17 via mXylylene; N-terminus and C-terminus assumed) |  | 1.3 ± 1.3 | Ki (Cathepsin K; Table 4, calpain inhibitors): > 100 µM
CC(C)C[C@@H]1NC(=O)[C@H](CC(C)C)NC(=O)[C@H](CCC(=O)O)NC(=O)[C@@H](NC(=O)[C@H](Cc2ccc(O)cc2)NC(=O)[C@H](CCCCN)NC(=O)[C@@H]2CCCN2C(=O)[C@@H]2CCCN2C(=O)[C@@H](N)CC(=O)O)CSCc2cccc(c2)CSC[C@@H](C(=O)O)NC1=O [compound 71] (H-DPPKYCELLC-OH; linker 6-10 via mXylylene; N-terminus and C-terminus assumed) |  | 27.6 ± 8.2 | 
CC(C)C[C@@H]1NC(=O)[C@H](CC(C)C)NC(=O)[C@H](CCC(=O)O)NC(=O)[C@@H](NC(=O)[C@H](Cc2ccc(O)cc2)NC(=O)[C@H](CCCCN)NC(=O)[C@@H]2CCCN2C(=O)[C@@H]2CCCN2C(=O)[C@@H]2CCCN2)CSCc2cccc(c2)CSC[C@@H](C(=O)O)NC1=O [compound 73] (H-PPPKYCELLC-OH; linker 6-10 via mXylylene; N-terminus and C-terminus assumed) |  | 45.3 ± 1.24 | 
CC[C@H](C)[C@H](N)C(=O)N1CCC[C@H]1C(=O)N1CCC[C@H]1C(=O)N[C@@H](CCCCN)C(=O)N[C@@H](Cc1ccc(O)cc1)C(=O)N[C@H]1CSCc2cccc(c2)CSC[C@@H](C(=O)O)NC(=O)[C@H](Cc2ccccc2)NC(=O)[C@H](CC(C)C)NC(=O)[C@H](CCC(=O)O)NC1=O [compound 88] (H-IPPKYCELFC-OH; linker 6-10 via mXylylene; N-terminus and C-terminus assumed) |  | 27.9 ± 1.14 | 
